{
  "source": "patent US12414961B2",
  "about": "“Substituted nucleosides and nucleotides for treating viral infections” (priority 2013, dated 2025)",
  "type_in_all_cases": "cell-based",
  "conditions_in_all_cases": "Dengue virus; Cell Line Huh-7",
  "key": {"[1]": {"system": "Dengue Type 1", "experiment": "Dengue Type 1 antiviral assay, Huh-7"}, "[2]": {"system": "Dengue Type 3", "experiment": "Dengue Type 3 antiviral assay, Huh-7"}, "[3]": {"system": "Dengue Type 4", "experiment": "Dengue Type 4 antiviral assay, Huh-7"}},
  "data": [
    {"smiles": "CC(C)OC(=O)[C@H](C)N[P@](=O)(OC[C@H]1O[C@@H](n2ccc(=O)[nH]c2=S)C(C)(O)[C@H]1O)Oc1ccccc1", "note": "(stereo partly drawn) [drawing 393]", "values": [
      {"measurement": "EC50", "setting": "[1]", "value": 1.76, "unit": "µM"},
      {"measurement": "EC50", "setting": "[2]", "value": 7.28, "unit": "µM"},
      {"measurement": "EC50", "setting": "[3]", "value": 14.2, "unit": "µM"}
    ]}
  ]
}
